Values joined by “and” are separate entries in the source; they are usually repeats but may differ in a detail not shown here. Identical values can stand only once. This continues a long series; more values of the same kind are listed elsewhere. Toxic doses and inconclusive results are not listed.
Tested on: CD2F1 mice, L1210 leukemia ip, survival T/C
Experiment: NCI In Vivo Anticancer Drug Screen. Data for tumor model L1210 Leukemia (intraperitoneal) in CD2F1 (CDF1) mice
Conditions: higher = longer survival
Method in brief: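 Ratio T/C, where T is the treated-group value and C the vehicle-dosed control value, from mice implanted with a transplantable tumor.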

COc1cccc2c1C(=O)c1c(O)c3c(c(O)c1C2=O)C[C@@](O)(C(=O)CO)C[C@@H]3OC1CC(N)C(O)C(C)O1 (stereo partly drawn)
T/C (endpoint: mean survival time, dose: 0.13 mg/kg/injection, schedule: Q01DX009 (ip), vehicle: saline): 108 % of control
T/C (endpoint: mean survival time, dose: 0.2 mg/kg/injection, schedule: Q01DX009 (ip), vehicle: water): 106 % of control
T/C (endpoint: mean survival time, dose: 0.25 mg/kg/injection, schedule: Q01DX005 (ip), vehicle: water): 110 % of control
T/C (endpoint: mean survival time, dose: 0.38 mg/kg/injection, schedule: Q01DX009 (ip), vehicle: saline): 122 % of control
T/C (endpoint: mean survival time, dose: 0.39 mg/kg/injection, schedule: Q01DX009 (ip), vehicle: water): 111 % of control
T/C (endpoint: mean survival time, dose: 0.75 mg/kg/injection, schedule: Q01DX009 (ip), vehicle: saline): 122 % of control
T/C (endpoint: mean survival time, dose: 1.0 mg/kg/injection, schedule: Q04DX003 (ip), vehicle: water): 107 % of control
T/C (endpoint: mean survival time, dose: 1.56 mg/kg/injection, schedule: Q01DX009 (ip), vehicle: water): 167 % of control
T/C (endpoint: mean survival time, dose: 2.0 mg/kg/injection, schedule: Q04DX003 (ip), vehicle: water): 107 % of control
T/C (endpoint: mean survival time, dose: 3.0 mg/kg/injection, schedule: Q01DX001 (ip), vehicle: saline): 108 % of control
T/C (endpoint: mean survival time, dose: 3.12 mg/kg/injection, schedule: Q01DX009 (ip), vehicle: dextrose): 200 % of control
T/C (endpoint: mean survival time, dose: 3.13 mg/kg/injection, schedule: Q01DX009 (ip), vehicle: water): 176 % of control
T/C (endpoint: mean survival time, dose: 3.33 mg/kg/injection, schedule: Q01DX009 (ip), vehicle: saline): 110 % of control
T/C (endpoint: mean survival time, dose: 4.0 mg/kg/injection, schedule: Q01DX001 (ip), vehicle: saline): 108 % of control
T/C (endpoint: mean survival time, dose: 4.0 mg/kg/injection, schedule: Q04DX003 (ip), vehicle: water): 112 % of control
T/C (endpoint: mean survival time, dose: 6.0 mg/kg/injection, schedule: Q01DX001 (ip), vehicle: saline): 111 % of control
T/C (endpoint: mean survival time, dose: 6.0 mg/kg/injection, schedule: Q01DX009 (ip), vehicle: saline): 109 % of control and 110 % of control
T/C (endpoint: mean survival time, dose: 6.25 mg/kg/injection, schedule: Q01DX009 (ip), vehicle: dextrose): 160 % of control
T/C (endpoint: mean survival time, dose: 8.0 mg/kg/injection, schedule: Q01DX001 (ip), vehicle: saline): 105 % of control
T/C (endpoint: median survival time, dose: 0.25 mg/kg/injection, schedule: Q01DX005 (iv), vehicle: water): 106 % of control
T/C (endpoint: median survival time, dose: 0.5 mg/kg/injection, schedule: Q01DX005 (iv), vehicle: water): 112 % of control
T/C (endpoint: median survival time, dose: 1.0 mg/kg/injection, schedule: Q01DX005 (iv), vehicle: water): 112 % of control
T/C (endpoint: median survival time, dose: 1.3 mg/kg/injection, schedule: Q04DX003 (ip), vehicle: saline): 107 % of control
T/C (endpoint: median survival time, dose: 2.0 mg/kg/injection, schedule: Q01DX001 (iv), vehicle: water): 109 % of control
T/C (endpoint: median survival time, dose: 2.9 mg/kg/injection, schedule: Q01DX001 (ip), vehicle: saline): 111 % of control
T/C (endpoint: median survival time, dose: 4.0 mg/kg/injection, schedule: Q01DX001 (iv), vehicle: water): 111 % of control
T/C (endpoint: median survival time, dose: 5.0 mg/kg/injection, schedule: Q04DX003 (ip), vehicle: water): 107 % of control
T/C (endpoint: median survival time, dose: 13.3 mg/kg/injection, schedule: Q01DX001 (ip), vehicle: saline): 109 % of control

Source: PubChem BioAssay AID256 (DTP/NCI, 2004)
